AUC and IC50 data for six cell lines are collected here from the supplement of paper PMC4967469.

What all share (assay): Viability of human cancer cell lines after 72 h of drug (GDSC screen)
Compound in one experiment: C=CC(=O)Nc1cc(-n2c(=O)ccc3cnc4ccc(-c5ccc(NS(C)(=O)=O)cc5)cc4c32)ccc1C [BMX-IN-1 (QL-XII-61)]
To be noted: top dose 10 µM; top dose inferred. The procedure:
(§1)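 Human cancer cell lines in 384-well plates, medium with 10% serum, drug for 72 h over a 256-fold dose range (nine 2-fold or five 4-fold steps up to the top dose). Adherent lines were fixed and stained with the nucleic acid dye Syto60, suspension lines read with resazurin; signal relative to control wells, capped at 0 and 100%. One two-parameter sigmoid per drug and line, fitted in a mixed model over all curves with the slope shared within a line.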

Compound in another experiment: C=CCNC1=C2C[C@@H](C)C[C@H](OC)[C@H](O)[C@@H](C)/C=C(\C)[C@H](OC(N)=O)[C@@H](OC)/C=C\C=C(/C)C(=O)NC(=CC1=O)C2=O [17-AAG]
To be noted: top dose 1 µM. The procedure:
as §1

Compound in the next experiment: CCc1cc(-c2n[nH]c(C)c2-c2ccc3c(c2)OCCO3)c(O)cc1O [CCT018159]
To be noted: top dose 10 µM; top dose inferred. The procedure:
as §1

Compound in the next experiment: CN(C)Cc1cccc(N=C(c2ccccc2)c2c(O)[nH]c3cc(C(=O)N(C)C)ccc23)c1 [BIX02189]
Particulars: top dose 20 µM; top dose inferred. The procedure:
as §1

Compound in another experiment: COC(=O)CNC(=O)C(=O)OC [Dimethyloxalylglycine]
To be noted: top dose 4000 µM; top dose inferred. The procedure: as §1

Compound in another experiment: COc1cccc2c1C(=O)c1c(O)c3c(c(O)c1C2=O)C[C@@](O)(C(=O)CO)C[C@@H]3O[C@H]1C[C@H](N)[C@H](O)[C@H](C)O1 [Doxorubicin]
Particulars: top dose 1.024 µM. The procedure: as §1

Compound in the next experiment: COc1cccc2cc(-c3nc([C@H]4CC[C@H](C(=O)O)CC4)n4ncnc(N)c34)[nH]c12 [OSI-027]
To be noted: top dose 20 µM. The procedure:
as §1

Compound in a further experiment: CS(=O)(=O)c1ccc(C(=O)Nc2ccc(Cl)c(-c3ccccn3)c2)c(Cl)c1 [Vismodegib]
Particulars: top dose 10 µM; top dose inferred. The procedure: as §1

Compound in a further experiment: Cc1cnc(Nc2ccc(F)cc2Cl)nc1-c1c[nH]c(C(=O)N[C@H](CO)c2cccc(Cl)c2)c1 [VX-11e]
Particulars: top dose 5.12 µM; top dose inferred. The procedure:
as §1

Compound in another experiment: Cc1cnc(Nc2ccc(OCCN3CCCC3)cc2)nc1Nc1cccc(S(=O)(=O)NC(C)(C)C)c1 [TG101348]
Particulars: top dose 10.24 µM. The procedure:
as §1

Compound in another experiment: O=C(c1ccc(C(=O)N2CCC(N3CCCC3)CC2)c(Nc2ccccc2)c1)N1CCC(N2CCCC2)CC1 [UNC1215]
Particulars: top dose 1 µM; top dose inferred. The procedure:
as §1

By IC50 is meant the dose at which the fit gives 50% viability; a fit beyond the top or the lowest dose is shown as a bound at that dose. The AUC spans the tested range (256-fold, ending at the top dose) of the same fit; the more sensitive the line, the further below 1. For some assays here: A top dose marked as inferred comes from the curve model; the source does not state it.

As usually defined, the IC50 is the concentration that inhibits the measured activity by half. As for KINGS-1 (glioma, adherent), the AUC with BMX-IN-1 (QL-XII-61) is 0.955; in the experiment with 17-AAG, 0.691; in the experiment with CCT018159 it was 0.914; in the experiment with BIX02189 it was 0.956; in the experiment with Dimethyloxalylglycine, 0.626; with Doxorubicin, 0.835. Besides, the AUC with OSI-027 worked out at 0.767; with Vismodegib, 0.97; with VX-11e it was 0.95; in the experiment with TG101348, 0.874; with UNC1215 it was 0.977. Besides, the 50% inhibitory concentration (IC50) with BMX-IN-1 (QL-XII-61) was above 10 µM; with 17-AAG it was 0.265 µM; with CCT018159 it was above 10 µM; in the experiment with BIX02189, above 20 µM; with Dimethyloxalylglycine, 635 µM; with Doxorubicin, above 1.02 µM. For the same cell line, the half-inhibitory concentration (IC50) was 10.3 µM with OSI-027; above 10 µM with Vismodegib; above 5.12 µM in the experiment with VX-11e; above 10.2 µM in the experiment with TG101348; above 1 µM with UNC1215.

On to H2595 (mesothelioma, adherent), for which the AUC in the experiment with BMX-IN-1 (QL-XII-61) came to 0.954; with 17-AAG it was 0.775; in the experiment with CCT018159, 0.906; with BIX02189, 0.923; with Dimethyloxalylglycine, 0.578; with Doxorubicin, 0.546. Further, the AUC stood at 0.78 in the experiment with OSI-027; 0.963 in the experiment with Vismodegib; 0.978 with VX-11e; 0.864 with TG101348; 0.969 with UNC1215. Further, the IC50 is above 10 µM with BMX-IN-1 (QL-XII-61); 0.563 µM with 17-AAG; above 10 µM with CCT018159; above 20 µM in the experiment with BIX02189; 445 µM in the experiment with Dimethyloxalylglycine; 0.0896 µM with Doxorubicin. Besides, the IC50 with OSI-027 was 11.9 µM; in the experiment with Vismodegib, above 10 µM; with VX-11e it was above 5.12 µM; with TG101348, above 10.2 µM; in the experiment with UNC1215 it was above 1 µM.

Turning to SW1783 (glioma, adherent), the AUC with BMX-IN-1 (QL-XII-61) turned out to be 0.99; with 17-AAG, 0.769; with CCT018159, 0.891; with BIX02189, 0.991; with Dimethyloxalylglycine, 0.418; in the experiment with Doxorubicin, 0.579. Also, the AUC is 0.809 with OSI-027; 0.991 with Vismodegib; 0.991 in the experiment with VX-11e; 0.991 with TG101348; 0.989 with UNC1215. Further, the IC50 with BMX-IN-1 (QL-XII-61) is above 10 µM; with CCT018159, 9.68 µM; in the experiment with BIX02189 it was above 20 µM; with Dimethyloxalylglycine it was 152 µM; in the experiment with Doxorubicin, 0.103 µM; with OSI-027, 9.19 µM. The IC50 was above 10 µM in the experiment with Vismodegib, above 5.12 µM with VX-11e, above 10.2 µM with TG101348 and above 1 µM in the experiment with UNC1215.

Take D-392MG (glioma, adherent): the AUC with BMX-IN-1 (QL-XII-61) came out at 0.902; with 17-AAG, 0.842; with CCT018159 it was 0.907; in the experiment with BIX02189 it was 0.868; with Dimethyloxalylglycine it was 0.651; with Doxorubicin, 0.638. Besides, the AUC in the experiment with OSI-027 stood at 0.733; with Vismodegib it was 0.977; with VX-11e, 0.954; in the experiment with TG101348, 0.703; with UNC1215 it was 0.975. The half-maximal inhibitory concentration (IC50) in the experiment with BMX-IN-1 (QL-XII-61) is above 10 µM; with 17-AAG, above 1 µM; in the experiment with CCT018159 it was above 10 µM; in the experiment with BIX02189 it was above 20 µM; in the experiment with Dimethyloxalylglycine it was 768 µM; with Doxorubicin it was 0.178 µM. The IC50 with OSI-027 was 7.49 µM; with Vismodegib it was above 10 µM; with VX-11e, above 5.12 µM; with TG101348 it was 2.96 µM; with UNC1215 it was above 1 µM.

Consider “OCI-AML5 (acute myeloid leukaemia, suspension)”, for which the AUC worked out at 0.943 in the experiment with BMX-IN-1 (QL-XII-61); 0.926 with 17-AAG; 0.959 in the experiment with CCT018159; 0.842 with BIX02189; 0.244 with Dimethyloxalylglycine; 0.55 with Doxorubicin. The AUC in the experiment with OSI-027 is 0.184; with Vismodegib, 0.986; with VX-11e, 0.79; in the experiment with TG101348, 0.433; with UNC1215 it was 0.988. In addition, the IC50 with BMX-IN-1 (QL-XII-61) was above 10 µM; with 17-AAG, above 1 µM; with CCT018159, above 10 µM; in the experiment with BIX02189 it was 12.3 µM; with Dimethyloxalylglycine, 49.5 µM; in the experiment with Doxorubicin, 0.0867 µM. The IC50 with OSI-027 is 0.158 µM; in the experiment with Vismodegib it was above 10 µM; with VX-11e, 2.06 µM; with TG101348 it was 0.426 µM; with UNC1215 it was above 1 µM.

Consider JHH-1 (liver, adherent), for which the AUC in the experiment with BMX-IN-1 (QL-XII-61) came to 0.934; in the experiment with 17-AAG, 0.858; in the experiment with CCT018159 it was 0.957; in the experiment with BIX02189, 0.973; with Dimethyloxalylglycine, 0.493; with Doxorubicin it was 0.63. Further, the AUC with OSI-027 came to 0.255; in the experiment with Vismodegib it was 0.985; in the experiment with VX-11e it was 0.769; in the experiment with TG101348, 0.653; with UNC1215 it was 0.983. Also, the half-maximal inhibitory concentration (IC50) in the experiment with BMX-IN-1 (QL-XII-61) is above 10 µM; with 17-AAG, 0.936 µM; with CCT018159 it was above 10 µM; with BIX02189, above 20 µM; with Dimethyloxalylglycine, 239 µM; with Doxorubicin it was 0.151 µM. The IC50 is 0.231 µM with OSI-027; above 10 µM in the experiment with Vismodegib; 2.09 µM with VX-11e; 1.77 µM in the experiment with TG101348; above 1 µM with UNC1215.
